Measurements from the RNAGym collection of RNA variant scans (doi:10.7554/elife.90254).
Read counts are not given, so values of variants with three or more changes are uncertain.

B1: OR4K15 (parent)
chain: GUUAACGGUCAUAGGCCAUGGAAACUAGGAGCACCAUUUCGCUGCCAGUGAAGAAAUGAACAAAGAAAAUCUGGGCCAGGCAGGCAUCAAAAGAAAUAGUCUUGCGCUCAACCAGAAAGUCUGUAAUCAUUUUAAGGGUA

Variants of: B1
Test: self-cleavage, relative activity (ratio to wild type); higher = more cleavage; in vitro, sequencing; the parent is a self-cleaving ribozyme

Row | Variant | self-cleavage
1 | GUUAACGGUCAUAGGCCAUGGAAACUAGGAGCACCAUUUCGCUGCCAGUGGAGAAAUGAACAAAGAAAAUCUGGGCCAGGCAGGCACCAAAAGAAAUAGUCUUGCGCUCAACCAGAAAGCCUGUAAUCAUUUUAAGGGUA [A51G U87C U120C] | 0.19
2 | GUUAACGGUCAUAGGCCAUGGAAACUAGGAGCACCAUUUCGCUGCCAGUGGAGAAAUGAACAAAGAAAAUCUGGGCCAGGCAGGCAUCAAAAGAAAUAGUCAUGCGCUCAACCAGAAAGUCUGUAAUCGUUUUAAGGGUA [A51G U102A A129G] | 0.37
3 | GUUAACGGUCAUAGGCCAUGGAAACUAGGAGCACCAUUUCGCUGCCAGUGGAGAAAUGAACAAAGAAAAUCUGGGCCAGGCAGGCAUCAAAAGAAAUAGUCUUGCGCACAACCAGAAAGUCUGUAAUCAUUUUAAGUGUA [A51G U108A G137U] | 0.04
4 | GUUAACGGUCAUAGGCCAUGGAAACUAGGAGCACCAUUUCGCUGCCAGUGGAGAAAUGAACAAAGAAAAUCUGGGCCAGGCAGGCAUCAAAAGAAAUAGUCUUGCGCCCAACCAGAAAGUCCGUAAUCAUUUUAAGGGUA [A51G U108C U122C] | 0.01
5 | GUUAACGGUCAUAGGCCAUGGAAACUAGGAGCACCAUUUCGCUGCCAGUGGAGAAAUGAACAAAGAAAAUCUGGGCCAGGCAGGCAUCAAAAGAAAUAGUCUUGCGCUCAACCAGAAAGUCUGUAACCGUUUUAAGGGUA [A51G U127C A129G] | 0.41
6 | GUUAACGGUCAUAGGCCAUGGAAACUAGGAGCACCAUUUCGCUGCCAGUGUGGAAGUGAACAAAGAAAAUCUGGGCCAGGCAGGCAUCAAAAGAAAUAGUCUUGCGCUCAACCAGAAAGUCUGUAAUCAUUUUAAGGGUA [A51U A52G A56G] | 1.71
7 | GUUAACGGUCAUAGGCCAUGGAAACUAGGAGCACCAUUUCGCUGCCAGUGUGGAAAUGAACAAAGAAAAUCUGGGCCAGGCAGGCAUCAAAAGUAAUAGUCUUGCGCUCAACCAGAAAGUCUGUAAUCACUUUAAGGGUA [A51U A52G A94U U130C] | 1.19
8 | GUUAACGGUCAUAGGCCAUGGAAACUAGGAGCACCAUUUCGCUGCCAGUGUGGAAAUGAACAAAGAAAAUCUGGGCCAGGCAGGCAUCAAAAGAAACAGUCAUGCGCUCAACCAGAAAGUCUGUAAUCAUUUUAAGGGUA [A51U A52G U97C U102A] | 0.33
9 | GUUAACGGUCAUAGGCCAUGGAAACUAGGAGCACCAUUUCGCUGCCAGUGUUGAAAUGAACAAAGAAAAUCUGGGCCAGGCAGGCAUCAAAAGGAAUAGUCUUGCGCUCAUCCAGAAAGUCUGUAAUCAUUUUAAGGGUA [A51U A52U A94G A111U] | 0.05
10 | GUUAACGGUCAUAGGCCAUGGAAACUAGGAGCACCAUUUCGCUGCCAGUGUAGGAGUGAACAAAGAAAAUCUGGGCCAGGCAGGCAUCAAAAGGAAUAGUCUUGCGCUCAACCAGAAAGUCUGUAAUCAUUUUGAGGGUU [A51U A54G A56G A94G A134G A140U] | 2.48
11 | GUUAACGGUCAUAGGCCAUGGAAACUAGGAGCACCAUUUCGCUGCCAGUGUAGGAAUGAACAUAGAAAAUCUGGGCCAGGCAGGCAUCAAAAGAAAUAGUCUUGCGCUCAACCAGAAAGUCUGUAAUCAUUCUAAGGGUA [A51U A54G A63U U132C] | 2.25
12 | GUUAACGGUCAUAGGCCAUGGAAACUAGGAGCACCAUUUCGCUGCCAGUGUAGGAAUGAACAAAGAGAAUCUGGGCCAGGCAGGCAUCAAAAGAAAUAGUCUUGCGCUCAACCAGAAAGUCUGUAAUCAUUUUGAGGGUA [A51U A54G A67G A134G] | 1.33
13 | GUUAACGGUCAUAGGCCAUGGAAACUAGGAGCACCAUUUCGCUGCCAGUGUAGUAAUGAACAAAGAAAAUCUGGGCCAGGCAGGCAUCAGAAGAAGUAGUCUUGCGCUCAACCAGAAAGUCUGUAAUCACUUUAAGGGUA [A51U A54U A90G A96G U130C] | 0.99
14 | GUUAACGGUCAUAGGCCAUGGAAACUAGGAGCACCAUUUCGCUGCCAGUGUAGAAGUGAACAAGGGAAAUCUGGGCCAGGCAGGCAUCAAAAGAAAUAGUCUUGCGCUCAACCAGAGAGUCUGUAAUCAUUUUAAGGGUA [A51U A56G A64G A66G A117G] | 1.97
15 | GUUAACGGUCAUAGGCCAUGGAAACUAGGAGCACCAUUUCGCUGCCAGUGUAGAAGCGAACAAAGAAAAUCUGGGCCAGGCGGGCAUCAAAAGAAAUAGUCUUGCGCUCAACCAGAAAGUCUGUAAUCAUUUUAAGGGUA [A51U A56G U57C A82G] | 0.51
16 | GUUAACGGUCAUAGGCCAUGGAAACUAGGAGCACCAUUUCGCUGCCAGUGUAGAAAUGCACAAAGAAAAUCUGGGCCAGGCAGGCAUCAAAAGAAAUAGUCUCGCGCUCAACCAGUAAGUCUGUAAUCAUUUUAAGGGUA [A51U A59C U103C A116U] | 0.02
17 | GUUAACGGUCAUAGGCCAUGGAAACUAGGAGCACCAUUUCGCUGCCAGUGUAGAAAUGAACGAAGAAAAUCUGGGCCAGGCAGGCAUCAAGAGGAAUAGUCUUGCGCUCAACCAGAAAGUCUGUAAUCAUUUUAAGGGUA [A51U A62G A91G A94G] | 0.68
18 | GUUAACGGUCAUAGGCCAUGGAAACUAGGAGCACCAUUUCGCUGCCAGUGUAGAAAUGAACAAAGAGAGUCUGGGCCAGGCAGGCAUCAAAAGAAAUAGUCUUGCGCUCAACCAGAAAGUCUGUAAUCAUUUUAAGGGUA [A51U A67G A69G] | 0.5
19 | GUUAACGGUCAUAGGCCAUGGAAACUAGGAGCACCAUUUCGCUGCCAGUGUAGAAAUGAACAAAGAGAAUCUGGGCCGGGCAGGCAUCAAAAGAAAUAGUCUUGCGCUCAACCAGAAGGUCUGUAAUCAUUUUAAGGGUA [A51U A67G A78G A118G] | 0.12
20 | GUUAACGGUCAUAGGCCAUGGAAACUAGGAGCACCAUUUCGCUGCCAGUGUAGAAAUGAACAAAGAAGAUCUGGGCCAGGCAGGCAUCAAAAGUAAUAGUCUUGCGCUCAACCAGAAAGUCUGUAAUCAUUUUAAGGGUA [A51U A68G A94U] | 1.1
21 | GUUAACGGUCAUAGGCCAUGGAAACUAGGAGCACCAUUUCGCUGCCAGUGUAGAAAUGAACAAAGAAUAUCCGGGCCAGGCAGGCAUCAAAAGAAAUAGUCUUGCGCUCAACCAGAAAGUCUGUAAUCAUUUUAAGGGUA [A51U A68U U72C] | 0.18

Row | Variant | self-cleavage
22 | GUUAACGGUCAUAGGCCAUGGAAACUAGGAGCACCAUUUCGCUGCCAGUGUAGAAAUGAACAAAGAAAGCCUGGGCCAGGCAGGCAUCAAAAGAAAUAGUCUUGCGCUCAACCAGAAAGUCUGUAAUCAUUCUAGGGGUA [A51U A69G U70C U132C A135G] | 0.12
23 | GUUAACGGUCAUAGGCCAUGGAAACUAGGAGCACCAUUUCGCUGCCAGUGUAGAAAUGAACAAAGAAAUUCUGGGCCAGGCGGGCAUCAAAAGAAAUAGUCUUGCGCUCAACCAGAAAGUCUGUAAUCAUUUUAAGGGUA [A51U A69U A82G] | 1
24 | GUUAACGGUCAUAGGCCAUGGAAACUAGGAGCACCAUUUCGCUGCCAGUGUAGAAAUGAACAAAGAAAAUCUGGGCCAGGCGGGCAUCAUAAGAAAUAGUCUUGCGCUCAACCAGAAAGCCUGUAAUCAUUUUAAGGGUA [A51U A82G A90U U120C] | 0.6
25 | GUUAACGGUCAUAGGCCAUGGAAACUAGGAGCACCAUUUCGCUGCCAGUGUAGAAAUGAACAAAGAAAAUCUGGGCCAGGCAGGCGUCAAAAGGAAUAGUCUUGCGCUCAACCAGAAAGUCUGUAAUCAUUUUAAGGGUA [A51U A86G A94G] | 1.71
26 | GUUAACGGUCAUAGGCCAUGGAAACUAGGAGCACCAUUUCGCUGCCAGUGUAGAAAUGAACAAAGAAAAUCUGGGCCAGGCAGGCAUCAAAAGGGAUAGUCUUGCGCCCAACCAGAAAGUCUGUAAUCAUUUUAAGAGUA [A51U A94G A95G U108C G137A] | 0.03
27 | GUUAACGGUCAUAGGCCAUGGAAACUAGGAGCACCAUUUCGCUGCCAGUGUAGAAAUGAACAAAGAAAAUCUGGGCCAGGCAGGCAUCAAAAGAGAUAGUCUUGCGCUCAACCAGAAAGUCUGUAGUCAUUUUAAGGGUA [A51U A95G A126G] | 1.48
28 | GUUAACGGUCAUAGGCCAUGGAAACUAGGAGCACCAUUUCGCUGCCAGUGUAGAAAUGAACAAAGAAAAUCUGGGCCAGGCAGGCAUCAAAAGAUAUAGUCUUGCGCUCAACCAGAAAGUCUGUAAUCAUUUUAAGGGUG [A51U A95U A140G] | 2.88
29 | GUUAACGGUCAUAGGCCAUGGAAACUAGGAGCACCAUUUCGCUGCCAGUGUAGAAAUGAACAAAGAAAAUCUGGGCCAGGCAGGCAUCAAAAGAAGUAGUCUUGCGCUCAGCCAGAAAGUCUGUAAUCACUUUAAGGGUA [A51U A96G A111G U130C] | 0.01
30 | GUUAACGGUCAUAGGCCAUGGAAACUAGGAGCACCAUUUCGCUGCCAGUGUAGAAAUGAACAAAGAAAAUCUGGGCCAGGCAGGCAUCAAAAGAAAUUGUCUUGCGCUCAACCAGAAGGUCUGUAGUCAUUUUAAGGGUA [A51U A98U A118G A126G] | 0.69
31 | GUUAACGGUCAUAGGCCAUGGAAACUAGGAGCACCAUUUCGCUGCCAGUGUAGAAAUGAACAAAGAAAAUCUGAGCCAGGCAGGCAUCAAAGGAAAUGGUCUUGCGCUCAACCAGAAAGUCUGUAAUCAUUUUAAGGGUA [A51U G74A A92G A98G] | 0.04
32 | GUUAACGGUCAUAGGCCAUGGAAACUAGGAGCACCAUUUCGCUGCCAGUGUAGAAACGAACAAAGAAAAUCUGGGCCAGGCAGGCAUCAAAAGAGAUAGUCUUGCGCUCAACCAGAGAGUCUGUAAUCAUUUUAAGGGUA [A51U U57C A95G A117G] | 2.56
33 | GUUAACGGUCAUAGGCCAUGGAAACUAGGAGCACCAUUUCGCUGCCAGUGUAGAAAUGAACAAAGAAAAUCAGGGCCAGGCAGGCAACAGAAGAGAUAGUCUUGCGCUCAACCAGAAAGUCUGUAAUCAUUUUAAGGGUA [A51U U72A U87A A90G A95G] | 0.24
34 | GUUAACGGUCAUAGGCCAUGGAAACUAGGAGCACCAUUUCGCUGCCAGUGUAGAAAUGAACAAAGAAAAUCUGGGCCAGGCAGGCACCAAAAGAAAUAGUCUUGCGCUCAGCCAGAAAGUCUGUAAUCAUUUUAAGGGUA [A51U U87C A111G] | 0.01
35 | GUUAACGGUCAUAGGCCAUGGAAACUAGGAGCACCAUUUCGCUGCCAGUGUAGAAAUGAACAAAGAAAAUCUGGGCCAGGCAGGCAUCAAAAGAAAUAGUCCUGCGCUCAACCAGAAAGACUGUAAUCAUUUUAAGGGUA [A51U U102C U120A] | 1.67
36 | GUUAACGGUCAUAGGCCAUGGAAACUAGGAGCACCAUUUCGCUGCCAGUGUAGAAAUGAACAAAGAAAAUCUGGGCCAGGCAGGCAUCAAAAGAAAUAGUCCUGCGCUCAACCAGAAAGCCUGUAAUCAUUUUAAGGGUA [A51U U102C U120C] | 2.11
37 | GUUAACGGUCAUAGGCCAUGGAAACUAGGAGCACCAUUUCGCUGCCAGUGUAGAAAUGAACAAAGAAAAUCUGGGCCAGGCAGGCAUCAAAAGAAAUAGUCUAGCGCUCAACCAGAAAGUCCGUAAUCAUUUUAAGGGUA [A51U U103A U122C] | 0.43
38 | GUUAACGGUCAUAGGCCAUGGAAACUAGGAGCACCAUUUCGCUGCCAGUGUAGAAAUGAACAAAGAAAAUCUGGGCCAGGCAGGCAUCAAAAGAAAUAGUCUCGCGCUCAACCCGAAAGUCUGUAAUCAUUUUAAGGGUA [A51U U103C A114C] | 0
39 | GUUAACGGUCAUAGGCCAUGGAAACUAGGAGCACCAUUUCGCUGCCAGUGUAGAAAUGAACAAAGAAAAUCUGGGCCAGGCAGGCAUCAAAAGAAAUAGUCUUGCGCUCAACCAGAAAGUCCGUAAUCAUUUUAAGGGCA [A51U U122C U139C] | 0.3
40 | GUUAACGGUCAUAGGCCAUGGAAACUAGGAGCACCAUUUCGCUGCCAGUGACGGGACGAACAAAGAAAAUCUGGGCCAGGCAGGCAUCGAAAGAAAUAGUCUUGCGCUCAACCAGAAAGUCUGUAAUCAUUUUAAGGGUA [A52C A54G A55G U57C A89G] | 1.05
41 | GUUAACGGUCAUAGGCCAUGGAAACUAGGAGCACCAUUUCGCUGCCAGUGACGAAGUGAACAAAGAAAAUCUGGGCCAGGCAAGCAUCAAAAGAAAUAGUCUUGCGCUCAACCAGAAAGUCUGUAAUCAUUUUAAGGGUA [A52C A56G G83A] | 1.58
